# The list shows a part of the results. Values were computed here from the reads of four pooled replicates and scatter widely.
# Target: T1, Pho4 (S. cerevisiae) (UniProt P07270)
# T1 sequence: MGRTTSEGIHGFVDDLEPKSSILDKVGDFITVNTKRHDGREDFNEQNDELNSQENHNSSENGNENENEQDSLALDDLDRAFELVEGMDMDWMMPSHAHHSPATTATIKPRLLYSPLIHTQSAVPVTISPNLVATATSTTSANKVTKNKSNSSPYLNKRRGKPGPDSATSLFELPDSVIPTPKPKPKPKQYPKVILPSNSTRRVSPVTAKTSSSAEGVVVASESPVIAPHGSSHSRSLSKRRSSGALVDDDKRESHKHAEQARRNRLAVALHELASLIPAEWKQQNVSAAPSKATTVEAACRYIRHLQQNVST
# Experiment: relative binding free energy (BET-seq); higher = weaker binding
# Conditions: reference: library average
row,Sequence,relative binding free energy [kcal/mol]
1,GTGTGCACGTGAATCA,0.38
2,AGGAGCACGTGGTTTA,-0.14
3,GGGGTCACGTGAATTG,0.26
4,GGGGTCACGTGAATGC,0.39
5,TTGTCCACGTGTTCGG,0.15
6,GGTTGCACGTGCGATA,-0.06
7,GCGTGCACGTGAAGTG,0.19
8,AGTGGCACGTGTTAAA,-0.13
9,TGGACCACGTGAGGAG,0.28
10,TAGTTCACGTGGGATT,0.29
11,GTGATCACGTGTTGAA,0.18
12,TGGAGCACGTGAGTTT,0.14
13,GGAATCACGTGGGGTC,0.11
14,AGGCGCACGTGTGACG,0.01
15,AATAGCACGTGTCTTG,-0.01
16,GTGTACACGTGTGGTA,0.08
17,TTACGCACGTGAATGT,0.1
18,TGGCACACGTGATTGA,0.32
19,GTTATCACGTGATTTA,0.26
20,TCGGACACGTGCGTGG,-0.02
21,TAGTCCACGTGGGCAG,0.06
22,ACAGGCACGTGGATTT,0.03
23,CGATTCACGTGGGTTT,0.23
24,GTGTCCACGTGGCGTA,0.06
25,TGTGGCACGTGCGCGG,-0.24

row,Sequence,relative binding free energy [kcal/mol]
1,CGGGTCACGTGTGATG,0.11
2,CAGTGCACGTGGATGA,0.16
3,GGCGGCACGTGGTACG,-0.06
4,TGGCACACGTGGTGAG,-0.18
5,GTTCGCACGTGTTTCG,0.13
6,GCGGTCACGTGGGTGT,-0.02
7,GTGGTCACGTGTTAGC,0.17
8,TACGCCACGTGGGTGT,-0.21
9,TCGGCCACGTGTGTGG,-0.18
10,ATGTACACGTGTAAGG,0.09
11,TGAGGCACGTGGTAGT,-0.09
12,GTAGTCACGTGGTCTG,0.08
13,GTTGGCACGTGTTCGC,0.02
14,GTTAACACGTGGTTGG,0.02
15,TTGGCCACGTGTGAAG,0.07
16,GGAATCACGTGGTTTA,0.13
17,CTTTCCACGTGTTGTG,-0.01
18,AATTGCACGTGTGCGT,-0.02
19,TGGGGCACGTGGAGGC,-0.14
20,ATGTTCACGTGGCGCT,0.07
21,AGTCTCACGTGGGGGC,0.09
22,GTTTGCACGTGTATTA,0.14
23,ATAATCACGTGGCGGT,0.21
24,GGTGCCACGTGGGAGG,-0.28
25,GGGAACACGTGGGGGT,-0.06

row,Sequence,relative binding free energy [kcal/mol]
1,TTAGACACGTGAGTGC,0.25
2,AGTATCACGTGTTCAG,0.13
3,GTTTCCACGTGTCGGT,0.23
4,TTTTACACGTGATGTG,0.24
5,AGGTTCACGTGGTAAT,0.29
6,TTCGTCACGTGGTAAA,0.07
7,GTATTCACGTGCTGTT,0.28
8,GGGTTCACGTGCGGAA,0.14
9,AGGTGCACGTGTAATC,0.21
10,TTATGCACGTGCGCAT,-0.07
11,ACTTTCACGTGATATG,0.18
12,GGTGTCACGTGCGGAT,0.02
13,GTTCTCACGTGCGGGT,0.19
14,GTATTCACGTGTGGCG,0.3
15,ATTCGCACGTGGATGT,-0.23
16,AAATGCACGTGGAGGG,-0.06
17,TGTGTCACGTGACAAT,0.19
18,TGGGTCACGTGCTTCT,0.08
19,TGGTGCACGTGACAAG,0.06
20,GGCGGCACGTGACGGA,0.1
21,TGCCTCACGTGTTAGG,0.3
22,GCGTTCACGTGGGCGG,0.19
23,TATTGCACGTGCTATA,-0.09
